According to patent publication US5945404A, “21-Substituted steroid compound” (priority 1993, dated 1999):
Several values for one entry are separate records, joined by “and”; a condition that tells them apart may be missing. Equal entries are not always repeated. The name of at least one read-out is uncertain.

Assays:
granuloma = assay: Inhibitory Effects on Granuloma Growth (Paper Disk Method); assay type: in vivo, male Sprague-Dawley rats; settings: rat, ointment 0.1%, 50 mg once a day, 7 days
Protocol: (§1) Ointment to be tested was prepared usign white soft paraffin as the base and containing dexamethasone at 0.1% concentration.
Groups of 5 male Sprague-Dawley rats each weighing 150-170 g were used. Under ether anesthesia, the dorsum of animals was closely clipped, and medianly incised. After each one pre-weighed paper disk (8-mm diameter, 1-mm thick, weighing about 30 mg; Toyo-Roshi filter paper) was inserted subcutaneously into both sides of the dorsal incision, the incision was sutured. In order to prevent bacterial infection, penicillin G potassium salt (2,000 units) per rat was intramascularly injected after the surgery. Base or ointment to be tested (50 mg each) was rubbed carefully into the skin over the paper disk inserted site, for 30 seconds once a day for the duration of 7 days. Rats were slipped plastic cangs on to prevent them from licking the drug applied sites. On the 8th day of the test, rats were sacrificed under ether anesthesia, and granulomas were carefully excised. Granulomas were dried at 40° C. for 24 h, and their dry weights were recorded.
Inhibitory effects of dexamethasone derivatives on the weight increase of granuloma of experimental animals as compared with those of control animals are shown as per cent of inhibition ov er the control in Table 1. Figures wihth asterisks in the table indicate signfiicant difference. The same will be applied to the following other tables.

[1] = tested on: croton oil-induced ear edema; assay: Inhibitory Effects on Croton oil-induced Ear Lobe Edema; assay type: in vivo, male ddY mice; settings: ointment 20 mg, mouse ear lobe
Protocol: as §1
Groups of 10 male ddY mice each weighing about 25 g were used. Ointment to be tested (20 mg) was rubbed in the right-side ear lobe, and, 30 min later, a drop of 4 % croton oil dissolved in either was applied to it. Thirty minute after that treatment, mice were sacrificed. Ear lobes on both sides were punched out in the size of 5-mm diameter, and weighed. Results were expressed by calculating the per cent of weight change of the right edema ear as compared with that of the untreated left ear, and compared with that of the control.

[2] = tested on: croton oil-induced granuloma; assay: Croton Oil-induced Granuloma (granuloma pouch); assay type: in vivo, male Sprague-Dawley rats; settings: 1.0 mg/rat; 7 days
Protocol: Groups of 5 male Sprague-Dawley rats each weighing 160-180 g were used. Under ether anesthesia, the dorsum of animals was closely clipped, and air sac was formed by injecting air (20 ml) subcutaneously. Next day cotton seed oil containing 1% croton oil was injected into the air sac. Drugs to be tested were suspended in the cotton seed oil containing 1% croton oil, and administered. After 7 days, the blood was taken from the animal under ether anesthesia. Then, the granuloma pouch fluid (exudate) was collected, and the fluid volume was measured. The pouch wall formed around granuloma and thymus were also excised and weighed.

SMILES	Weight of granuloma, per cent of change of the controls (granuloma)	Percent of inhibition of ear edema ([1]; Table 5)	Effects on granuloma weight, per cent of inhibition over the control [2]	Effects on pouch fluid (exudate) volume, per cent of inhibition over the control [2]	Percent of inhibition of ear edema ([1]; Table 6)
CC(=O)NC1C(O)CC(OCC(=O)C2(O)C(C)CC3C4CCC5=CC(=O)C=CC5(C)C4(F)C(O)CC32C)(C(=O)O)OC1C(O)C(O)CO (stereo not drawn) [Compound 89β, sialylbetamethasone]	-26.4 ± 2.2 per cent	22.2 ± 5.3%	–	–	–
CCCCC(=O)O[C@]1(C(=O)CO)[C@@H](C)C[C@H]2[C@@H]3CCC4=CC(=O)C=C[C@]4(C)[C@@]3(F)[C@@H](O)C[C@@]21C [Betamethasone valerate, reference compound]	–	29.1 ± 5.9%	23.6 ± 10.1 per cent	41.0 ± 9.9 per cent	24.9 ± 3.5%
CC(=O)NC1C(O)CC(OCC(=O)C2(O)C(C)CC3C4CCC5=CC(=O)C=CC5(C)C4(F)C(O)CC32C)(C(=O)O)OC1C(O)C(O)CO (stereo not drawn) [Compound 89α, sialylbetamethasone]	-22.1 ± 6.0 per cent	22.5 ± 5.2%	–	–	–
Cc1ccc(C(=O)OC[C@H]2O[C@@H](OCC(=O)[C@H]3[C@H](C)C[C@H]4[C@@H]5C[C@H](F)C6=CC(=O)C=C[C@]6(C)[C@@]5(F)[C@@H](O)C[C@@]43C)[C@H](OC(=O)c3ccc(C)cc3)[C@@H](OC(=O)c3ccc(C)cc3)[C@@H]2OC(=O)c2ccc(C)cc2)cc1 [Compound 109β, Glucosyldiflucortolone (p-toluoyl derivative)]	–	–	36.5 ± 10.2 per cent and 58.0 ± 1.9 per cent	–	38.6 ± 9.2%
CC(=O)NC1C(O)CC(OCC(=O)C2(O)C(C)CC3C4CCC5=CC(=O)C=CC5(C)C4(F)C(O)CC32C)(C(=O)O)OC1C(O)C(O)CO (stereo not drawn) [Compound 85β, sialyldexamethasone]	-7.8 ± 5.2 per cent	19.2 ± 3.7%	–	–	–
COC(=O)C1(OCC(=O)C2(O)C(C)CC3C4CCC5=CC(=O)C=CC5(C)C4(F)C(O)CC32C)CC(OC(C)=O)C(NC(C)=O)C(C(OC(C)=O)C(COC(C)=O)OC(C)=O)O1 (stereo not drawn) [Compound 84β, sialyl dexamethasone]	-7.3 ± 3.8 per cent	11.0 ± 4.8%	–	–	–
CC(=O)NC1C(O)CC(OCC(=O)C2(O)C(C)CC3C4CCC5=CC(=O)C=CC5(C)C4(F)C(O)CC32C)(C(=O)O)OC1C(O)C(O)CO (stereo not drawn) [Compound 85α, sialyldexamethasone]	-31.1 ± 2.2 per cent	26.5 ± 4.4%	–	–	–
COC(=O)C1(OCC(=O)C2(O)C(C)CC3C4CCC5=CC(=O)C=CC5(C)C4(F)C(O)CC32C)CC(OC(C)=O)C(NC(C)=O)C(C(OC(C)=O)C(COC(C)=O)OC(C)=O)O1 (stereo not drawn) [Compound 84α, sialyl dexamethasone]	-16.0 ± 2.9 per cent	13.6 ± 3.6%	–	–	–
